{"source": "PubChem BioAssay AID1030", "about": "(National Center for Advancing Translational Sciences (NCATS), 2008)", "note": "The campaign covered roughly 220,000 compounds. About 16,000 (7.3%) were called active. Inconclusive means that the source gave no clear call. Such entries were picked first, then a sample of the others. The call rests on the fitted dose curve; in most records, active means well fitted inhibition curve with a large enough effect (not every such curve was filed as active); inconclusive means small, poorly fitted or top-dose-only effect, or another doubt; inactive means no such curve, though single readings can be large or run the other way. Potencies of inconclusive entries are left out as doubtful fits. Potency means the concentration at half of the fitted maximal effect; tags describe the fitted curve by direction and shape.", "data": [{"target": "Aldehyde dehydrogenase 1A1 (Homo sapiens) (UniProt P00352)", "sequence (P00352 whole entry, looked up)": "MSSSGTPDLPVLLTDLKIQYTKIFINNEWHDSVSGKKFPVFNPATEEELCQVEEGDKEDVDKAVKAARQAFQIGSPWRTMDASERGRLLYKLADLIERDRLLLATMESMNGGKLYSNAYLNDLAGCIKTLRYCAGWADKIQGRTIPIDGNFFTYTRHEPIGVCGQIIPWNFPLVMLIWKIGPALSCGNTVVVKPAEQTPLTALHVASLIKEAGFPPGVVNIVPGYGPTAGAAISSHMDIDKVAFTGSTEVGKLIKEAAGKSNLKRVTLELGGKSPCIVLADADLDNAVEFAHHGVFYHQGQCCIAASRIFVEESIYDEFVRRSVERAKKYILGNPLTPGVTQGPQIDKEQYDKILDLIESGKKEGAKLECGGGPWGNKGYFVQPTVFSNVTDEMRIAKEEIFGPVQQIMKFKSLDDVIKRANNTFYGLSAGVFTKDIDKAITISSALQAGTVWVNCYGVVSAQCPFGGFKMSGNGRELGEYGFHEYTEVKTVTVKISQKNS", "test": "qHTS Assay for Inhibitors of Aldehyde Dehydrogenase 1 (ALDH1A1)", "settings": "Purified ALDH1A1, NADH fluorescence, propionaldehyde substrate; series mostly up to 75.3 µM", "values": [{"compound": "CSc1nnc(C)c(=O)n1COC(=O)c1ccc(S(=O)(=O)N2CCOCC2)cc1", "Potency": "inconclusive [inhibitor, single point]"}, {"compound": "CCCCCCCOC(=O)c1ccc(OC(=O)c2cccnc2)cc1", "Potency": "inconclusive [inhibitor, partial curve]"}, {"compound": "O=C(c1ccccc1-c1nc(-c2ccc(F)cc2)no1)N1CCCC1", "Potency": "inconclusive [inhibitor, single point]"}, {"compound": "Cc1noc(C)c1COc1ccc(C(=O)NCc2ccccn2)cc1", "Potency": "inactive"}, {"compound": "COc1cc2c(cc1NC(=O)Nc1ccc(C)cc1)oc1ccccc12", "Potency": "inactive"}, {"compound": "CCn1c(C)nc2cc(C(=O)n3cc(C(=O)c4ccccc4O)cn3)ccc21", "Potency": "inactive"}, {"compound": "CCC(C(=O)NCCN1CCN(C)CC1)n1c(C)c2cnn(-c3ccccc3)c(=O)c2c1C", "note": "(configuration not stated)", "Potency": "active: 22.4 µM"}, {"compound": "COc1cccc(/C=N/NC(=O)CC(=O)NCCc2ccccc2)c1OC", "Potency": "inconclusive [inhibitor, single point]"}, {"compound": "O=C(OCC(=O)N(C1CCCCC1)C1CCCCC1)c1cnccn1", "Potency": "inactive"}, {"compound": "CC(C)(C)C1CCC(OCC(O)CN2CCN(c3ccccn3)CC2)CC1", "note": "(configuration not stated)", "Potency": "inconclusive [inhibitor, single point]"}, {"compound": "Cc1cc(C)nc(N2CCC(CNC(=O)CCc3ccccc3)CC2)n1", "Potency": "inconclusive [inhibitor, single point]"}, {"compound": "NC(=O)c1c(NC(=O)C2CCCO2)sc2c1CCC2", "note": "(configuration not stated)", "Potency": "active: 22.4 µM"}, {"compound": "Cc1ccnc2nc(C(=O)Nc3ccc4c(c3)OCO4)nn12", "Potency": "inactive"}, {"compound": "CCOc1ccccc1NC(=O)CCSc1nc2n[nH]c(C)c2c(=N)n1-c1ccccc1Cl", "Potency": "inactive"}, {"compound": "COC(=O)N1C(/C=C/c2ccc3c(c2)OCO3)=Cc2ccccc2C1CC(C)=O", "note": "(configuration not stated)", "Potency": "inconclusive [inhibitor, partial curve]"}, {"compound": "CCOc1ccc(Nc2nc(Cc3nnc(SCC(=O)O)o3)cs2)cc1", "Potency": "inconclusive [inhibitor, single point]"}, {"compound": "CCOC(=O)c1[nH]c(COC(=O)CCCOc2ccccc2)c(C(=O)OCC)c1C", "Potency": "inactive"}, {"compound": "CCCc1cc(=O)[nH]c(SCC(=O)N(C)C2CCS(=O)(=O)C2)n1", "note": "(configuration not stated)", "Potency": "inactive"}, {"compound": "Cc1csc(NC(=O)c2ccc(C)c(S(=O)(=O)N3CCCCC3)c2)n1", "Potency": "inactive"}, {"compound": "COc1ccc(NS(=O)(=O)c2cc(NC(=O)C3CCCO3)ccc2N2CCCC2)cc1", "note": "(configuration not stated)", "Potency": "inconclusive [inhibitor, single point]"}, {"compound": "Cc1ccc(NC(=O)CCSc2nnnn2-c2ccc3c(c2)OCO3)cc1C", "Potency": "active: 12.6 µM"}, {"compound": "Cc1cc(C)nc(SC(C)CNS(=O)(=O)c2ccccc2)n1", "note": "(configuration not stated)", "Potency": "inactive"}]}]}
